Measurements reported in the supplement of paper PMC7826260.
The list shows a part of the results. One pool of 16,384 single-stranded DNAs met each Rep nickase domain in vitro for 1 h at 37 °C with 3 µM enzyme; only the middle of the 90-letter strands is printed. Numbers give uncut DNA relative to the enzyme-free pool, as log2; uncut sequences lie near 0, cut ones below; no hit call is given. Shares of all reads are compared; where an enzyme cuts many sequences, the uncut ones exceed 0.

Columns and labels:
Assay in all cases: uncleaved DNA left, log2 of reads against the no-enzyme library (log2 ratio); higher = less cleavage (more negative = more Rep cleavage of the k-mer); sequences stand for … in CTCGTCCG…ACCGGAGA
[1] = system: T1, Rep nickase domain of Muscovy duck circovirus
T1 sequence (residues 1-111 of Rep, tag left off): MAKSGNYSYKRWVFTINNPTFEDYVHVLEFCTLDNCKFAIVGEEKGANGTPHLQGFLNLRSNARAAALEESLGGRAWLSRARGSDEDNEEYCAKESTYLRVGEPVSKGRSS
Description: (§1)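 A pool of 90-nt single-stranded DNAs with seven random bases just before the constant AC of the nick site (name = the seven bases) was cut by 3 µM recombinant His6-SUMO-tagged Rep nickase domain (300 nM DNA, 50 mM HEPES pH 8.0, 50 mM NaCl, 1 mM MnCl2, 1 h, 37 °C, three replicates). Uncut DNA was amplified and sequenced.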

[2] = system: T2, Rep nickase domain of banana bunchy top virus
T2 sequence (residues 1-94 of Rep, tag left off): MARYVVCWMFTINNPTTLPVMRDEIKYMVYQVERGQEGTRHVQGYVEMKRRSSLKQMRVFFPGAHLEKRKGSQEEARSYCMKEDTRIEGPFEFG
Description: as §1

[3] = system: T3, Rep nickase domain of cabbage leaf curl virus
T3 sequence (residues 1-116 of Rep, tag left off): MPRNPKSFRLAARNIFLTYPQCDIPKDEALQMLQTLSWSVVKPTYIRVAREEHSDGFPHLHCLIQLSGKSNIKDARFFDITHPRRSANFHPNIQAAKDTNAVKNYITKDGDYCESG
Description: as §1

[4] = system: T4, Rep nickase domain of chickpea chlorotic dwarf virus
T4 sequence (residues 1-124 of Rep, tag left off): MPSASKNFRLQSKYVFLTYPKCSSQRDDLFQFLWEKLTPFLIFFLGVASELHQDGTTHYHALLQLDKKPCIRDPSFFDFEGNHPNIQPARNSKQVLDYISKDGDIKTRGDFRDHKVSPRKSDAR
Description: as §1

[5] = system: T5, Rep nickase domain of faba bean necrotic yellows virus
T5 sequence (residues 1-98 of Rep, tag left off): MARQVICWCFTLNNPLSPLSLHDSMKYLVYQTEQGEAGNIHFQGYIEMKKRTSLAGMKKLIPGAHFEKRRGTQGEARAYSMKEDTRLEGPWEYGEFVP
Description: as §1

[6] = system: T6, Rep nickase domain of maize striate mosaic virus
T6 sequence (residues 1-117 of Rep, tag left off): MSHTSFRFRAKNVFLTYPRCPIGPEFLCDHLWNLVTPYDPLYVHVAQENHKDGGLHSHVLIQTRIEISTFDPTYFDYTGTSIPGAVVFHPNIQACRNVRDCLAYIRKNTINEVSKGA
Description: as §1

[7] = system: T7, Rep nickase domain of porcine circovirus 2
T7 sequence (residues 2-116 of Rep, tag left off): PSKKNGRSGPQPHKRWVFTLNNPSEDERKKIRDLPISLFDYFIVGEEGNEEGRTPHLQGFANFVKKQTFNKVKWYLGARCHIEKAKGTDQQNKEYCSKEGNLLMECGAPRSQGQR
Description: as §1

[8] = system: T8, Rep nickase domain of tomato yellow leaf curl virus
T8 sequence (residues 1-136 of Rep, tag left off): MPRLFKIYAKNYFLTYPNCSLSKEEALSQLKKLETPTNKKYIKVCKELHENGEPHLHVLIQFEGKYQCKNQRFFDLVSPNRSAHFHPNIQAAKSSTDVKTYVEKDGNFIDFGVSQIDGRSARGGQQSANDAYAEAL
Description: as §1

[9] = system: T9, Rep nickase domain of wheat dwarf virus
T9 sequence (residues 1-137 of Rep, tag left off): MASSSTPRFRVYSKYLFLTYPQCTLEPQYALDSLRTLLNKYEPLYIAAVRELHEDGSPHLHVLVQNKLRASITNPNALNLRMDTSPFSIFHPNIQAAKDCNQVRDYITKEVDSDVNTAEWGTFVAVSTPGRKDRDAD
Description: as §1

Sequence	uncleaved DNA left (log2) [1]	uncleaved DNA left (log2) [2]	uncleaved DNA left (log2) [3]	uncleaved DNA left (log2) [4]	uncleaved DNA left (log2) [5]	uncleaved DNA left (log2) [6]	uncleaved DNA left (log2) [7]	uncleaved DNA left (log2) [8]	uncleaved DNA left (log2) [9]
TACCTGC	-0.051	-0.0887	-0.583	-1.15	-0.112	-1.07	-0.354	-0.0984	-0.203
GCATCAG	0.0868	0.0264	-0.67	-0.334	-0.0605	-0.797	0.191	0.0384	-0.123
AGAGAAT	0.0269	0.0652	0.113	0.888	-0.0597	1.48	0.0779	-0.035	0.153
CGACTCC	0.0878	0.0136	0.0896	0.494	0.0214	0.792	-0.0183	0.0308	0.0693
ACGTGCG	-0.0503	-0.111	0.0664	1.43	-0.0934	1.4	0.0979	-0.00349	-0.152
AAATTGG	0.0574	0.0306	-0.677	-0.747	0.0515	-1.21	0.111	0.0282	-0.0632
CCAAAAC	-0.0235	-0.0448	0.0188	-0.499	0.0792	-0.814	0.0879	-0.0337	0.0373
TAGTAAA	-0.0876	-0.05	0.264	-0.778	-0.0868	-0.106	-2.75	-0.00415	-0.0264
AGTGTCT	0.00528	-0.0255	0.104	-0.24	0.0522	0.658	-3.03	-0.0149	0.0517
CACACCA	-0.213	-0.156	-0.206	-2.55	-0.0933	-0.652	-0.279	-0.174	-0.107
TTGACTG	-0.0256	-0.0196	-0.0607	0.526	-0.108	1.5	-0.0185	-0.0998	-0.0687
CACCCGT	-0.139	-0.115	-0.624	-2.05	-0.0549	-1.01	-0.232	-0.301	-0.236
TCTAGTC	0.161	-0.0852	0.101	-0.158	-0.0314	-0.681	0.0239	-0.043	0.00601
CAACACT	-0.0765	-0.112	-2	-3.08	-0.0627	-1.17	-0.421	-0.0171	-0.509
GAGTTCA	0.0408	0.00552	0.204	-0.366	-0.119	1.09	-2.55	0.278	0.141
CCAATTG	0.0239	-0.0359	-0.512	-0.517	-0.0858	-1.07	0.164	-0.0458	-0.0264
TCGGGTT	-0.11	-0.112	0.153	0.325	-0.0368	1.32	0.0282	-0.0903	-0.0844
AGCGAAT	-0.00944	0.15	0.0117	0.777	0.0564	1.57	0.0978	0.0173	0.134
AGACTTC	-0.124	-0.0768	0.429	1.06	-0.0784	1.35	0.0311	-0.0652	-0.0173
TTAGTCC	0.0563	-0.0331	0.343	-0.0508	0.0861	0.449	-0.0417	0.0449	0.123

Sequence	uncleaved DNA left (log2) [1]	uncleaved DNA left (log2) [2]	uncleaved DNA left (log2) [3]	uncleaved DNA left (log2) [4]	uncleaved DNA left (log2) [5]	uncleaved DNA left (log2) [6]	uncleaved DNA left (log2) [7]	uncleaved DNA left (log2) [8]	uncleaved DNA left (log2) [9]
GTCACCG	0.0657	0.125	0.194	0.428	-0.0561	0.673	0.128	0.0448	0.138
CCAACGT	-0.0154	-0.176	-0.0224	-0.658	-0.104	-0.604	0.0328	-0.121	-0.162
GAAGATT	0.152	0.0687	-0.337	-1.41	0.264	1.43	-0.25	0.0221	-0.0127
ATCCGGA	-0.0307	-0.122	0.126	0.495	0.0974	-0.00259	0.0663	-0.146	0.0386
AACCACA	-0.14	0.0247	-0.109	-2.33	-0.0184	-0.635	-0.268	-0.0542	-0.057
ATGCGAA	0.0228	-0.0185	-0.648	-0.513	-0.103	-1.06	-0.0324	-0.0546	-0.106
AAGTTCG	0.0107	0.0216	-0.667	-0.291	0.00201	-1.19	0.042	0.0608	-0.105
TTCTGGC	0.0732	-0.184	-0.15	-0.373	-0.104	-0.879	0.0259	-0.0852	-0.188
GCGGTTT	0.0267	0.0494	0.639	1.16	-0.231	1.89	0.0945	0.142	0.122
CCCCTAA	-0.0338	-0.209	-0.143	-0.629	-0.0703	-0.698	-0.318	-0.209	-0.101
GTGTAGA	0.168	0.148	0.387	0.852	0.0521	1.28	0.203	0.23	0.192
GTCCGCC	-0.0211	-0.0409	0.236	0.613	-0.0379	0.901	0.0189	0.0128	-0.0671
TGACACA	0.108	0.0982	0.188	0.0357	0.0818	0.821	-0.0351	0.133	0.0844
TGTCCTA	0.0202	0.0871	0.264	0.0319	-0.0152	0.598	-0.187	-0.00469	0.083
AACGACA	0.0175	0.085	-0.0105	-0.488	-0.0211	0.663	-0.0676	0.021	0.0649
GACGAGG	0.106	0.0434	0.306	0.972	0.0362	0.958	0.097	0.0925	0.0517
AAATCTG	0.0973	0.00692	0.0344	0.687	0.0801	0.948	0.113	-0.0623	0.107
CTGACAC	0.0334	-0.0422	-0.0062	0.305	-0.000367	-0.192	0.00728	0.0259	0.121
CGCTGGG	0.116	-0.0275	-0.349	-0.318	0.00918	-0.465	0.187	0.0501	-0.0487
CCAGATA	-0.119	-0.0668	-0.176	-1.1	-0.0774	-0.466	-0.123	-0.204	-0.206

Sequence	uncleaved DNA left (log2) [1]	uncleaved DNA left (log2) [2]	uncleaved DNA left (log2) [3]	uncleaved DNA left (log2) [4]	uncleaved DNA left (log2) [5]	uncleaved DNA left (log2) [6]	uncleaved DNA left (log2) [7]	uncleaved DNA left (log2) [8]	uncleaved DNA left (log2) [9]
TAGGAAT	-0.0734	0.0294	0.256	1.28	-0.0129	1.62	-0.309	0.0466	0.0991
AATCTTG	0.0137	-0.0701	-0.422	-1.83	-0.0543	-0.941	-0.0663	-0.035	-0.0928
GTAACCT	-0.0413	-0.0161	0.144	0.547	-0.0173	1.61	-0.0724	0.11	0.0997
AGCCCGC	-0.013	-0.0124	0.511	1.14	-0.0516	0.789	-0.0327	-0.128	0.077
CTTTTCA	-0.146	-0.00383	0.00584	-1.2	-0.104	-0.645	-0.225	0.0979	0.0951
CCTAGAG	0.13	0.144	-0.621	-0.469	0.114	-1.04	0.22	0.121	-0.00718
CACAAGC	-0.0579	0.0207	-0.156	-0.35	-0.0565	-1.07	0.0914	-0.0628	-0.00991
TGAGCCC	-0.0176	-0.044	0.191	0.334	-0.0713	0.261	-0.0673	-0.0868	-0.0173
TGCGCTA	-0.134	-0.0463	-0.236	-0.327	-0.143	-0.386	-0.156	-0.156	-0.0445
ACGGTCG	0.0387	0.0566	-0.628	0.186	0.129	-0.475	0.101	0.141	-0.118
CCCCGTC	-0.138	-0.309	-0.12	-0.228	-0.122	-0.499	0.00788	-0.19	-0.257
GCTTATA	0.0778	0.0634	0.0549	-0.0455	0.00943	0.476	-0.0247	0.00721	0.0767
AAATTAT	-2.77	-0.0123	-3.67	-3.05	0.122	-2.74	-3.78	-0.0745	-3.38
AACCTTT	-0.088	-0.0942	-0.315	-2.87	0.0275	-0.589	-3.26	-0.0224	-0.0376
CTAGGAT	0.175	0.127	0.448	1.79	0.141	1.94	0.241	-0.175	0.0934
TCGGGTA	0.04	-0.0999	0.447	0.451	0.0394	1.01	0.0711	0.171	0.00195
CCAAGTC	0.0453	0.00654	-0.94	-0.923	-0.0254	-0.562	0.216	-0.024	-0.00538
CCTCATA	-0.0859	-0.00887	-0.246	-1.01	-0.0898	-0.492	-0.0599	-0.108	-0.0682
ATACAGG	0.015	0.0177	0.136	0.618	-0.0383	-0.0853	0.207	-0.092	-0.0267
CGTTTAT	-0.286	-0.0726	0.187	-0.243	0.035	-0.18	-0.564	-0.0155	0.036
